Measured values as given in PubChem BioAssay AID1508642 (National Center for Advancing Translational Sciences (NCATS), 2021).
The campaign covered roughly 43,000 compounds. About 200 (0.47%) were called active. About 12% were inconclusive and are not listed. Calls come from the whole dose curve; as a rule, active = well fitted cell-killing curve with a large enough effect; inconclusive = small, poorly fitted or top-dose-only effect, or effect the other way; inactive = flat fitted curve, though single readings scatter. This is one part of the list.

experiment: Cell viability qHTS assay in S16 Pmp22-F2sN cells; conditions: S16 Pmp22-F2sN Schwann cells (luciferase reporters placed in the Pmp22 gene) viability, CellTiter-Glo, 24 h; series mostly up to 57.5 µM; activity change, negative = cytotoxicity: at the top concentration; note: nearly all actives have a fitted effect of over 65% in size
How it was run: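 Rat S16 Schwann reporter line, 24 h treatment with library compounds delivered at 23 nL per well. Cell viability by CellTiter-Glo luminescence.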
% is set by controls: 0 for no effect and ±100 for the full control effect; potency is the fitted concentration of half-maximal effect.

Row | Structure (SMILES) | activity change, negative = cytotoxicity | Potency
1 | COc1cccc(CNCCCSc2nnnn2C)c1OC | inactive: -0.465% | –
2 | COc1ccc(CNc2nc(SCc3ccccc3Cl)nc3ccccc23)cc1 | inactive: -6% | –
3 | COc1ccc(N2CC(NC(=O)C3CCCC3)CC2=O)cc1OC (configuration not stated) | inactive: 14.7% | –
4 | O=C(Nc1cccc(Cl)c1)C1CCCN(c2ncnc3c2nc2n3CCCCC2)C1 (configuration not stated) | inactive: 20.1% | –
5 | CCOC(=O)C1CCC(CN(Cc2ccc(OC)cc2)S(=O)(=O)c2ccc(F)c(C(=O)Nc3c(C)cccc3C)c2)CC1 (configuration not stated) | inactive: -6.87% | –
6 | CS(=O)(=O)Nc1ccccc1C(=O)OCc1cc(=O)n2nc(C3CCCCC3)sc2n1 | inactive: -24.6% | –
7 | Cc1cc(F)ccc1NC(=O)CS(=O)(=O)c1cccc2nsnc12 | inactive: 3.01% | –
8 | O=C(Cn1cnc2c(nc3n2CCCCC3)c1=O)Nc1ccc(F)c(Cl)c1 | inactive: -1.07% | –
9 | CC1CCCN(S(=O)(=O)c2cc3c4c(c2)CC(=O)N4CCC3)C1 (configuration not stated) | inactive: -9.16% | –
10 | Cn1nc(C(=O)N2CCN(c3ccc(F)cc3)CC2)c2c1-c1ccccc1SC2 | inactive: -1.73% | –
11 | COc1ccc(CCNC(=O)c2cn(C)c3ccc(S(=O)(=O)N(C)C)cc3c2=O)cc1OC | inactive: -0.573% | –
12 | CC(C)c1ccc(NC(=O)Cn2nnc(C(=O)NCc3ccc(Cl)cc3)c2N)cc1 | inactive: 3.25% | –
13 | CCN(C(=O)c1cn(CC(C)C)c(=O)c2cc(OC)c(OC)cc12)c1cc(OC)ccc1OC | inactive: 16.1% | –
14 | COc1ccc2c(c1)sc1ncc(C(=O)NCc3cccc(C)c3)c(=O)n12 | inactive: -0.919% | –
15 | N#Cc1ccccc1Cn1cnc2nc3c(cc2c1=O)CCCC3 | inactive: -7.86% | –
16 | COc1ccccc1NC(=O)c1sc2nc3c(cc2c1N)CN(Cc1ccccc1)CC3 | inactive: -2.79% | –
17 | CCNC(=O)c1c(NC(=O)c2nc(S(=O)(=O)CC)ncc2Cl)sc2c1CCCC2 | – | active: 4.47 µM
18 | COCCn1c(C)cc(O)c(C(c2ccc(F)cc2)N2CCN(c3ccccc3)CC2)c1=O (configuration not stated) | inactive: -0.254% | –
19 | CCOC(=O)c1c(C)c(-c2ccccc2)n(CC(=O)NCCc2cccc(C)c2)c1C | inactive: 6.91% | –
20 | COc1ccc(CC(=O)NCCS(=O)(=O)N2CCN(c3ccc(F)cc3)CC2)cc1OC | inactive: -22.7% | –
21 | O=C(CSc1nc(=O)[nH]c2c1CCCC2)NCc1ccc(F)cc1 | inactive: -1.33% | –
22 | CCc1cc(=O)[nH]c(SCc2nc(-c3ccccc3)no2)n1 | inactive: -3.09% | –
23 | Cc1cccc(CC(=O)NCc2nc3cccnc3n2Cc2ccc(F)cc2)c1 | inactive: -3.23% | –
24 | Cc1nnc2c(N3CCN(c4ccccc4F)CC3)nc3ccc(C(=O)c4ccccc4)cc3n12 | inactive: -0.604% | –
25 | Cc1cccc(C(=O)NC2=NC(c3ccc(Cl)cc3)CC(=O)N2)c1 (configuration not stated) | inactive: -1.2% | –

Row | Structure (SMILES) | activity change, negative = cytotoxicity | Potency
26 | CCOC(=O)c1c(NC(C)=O)c2c3c(sc2n1Cc1nc(-c2ccccc2Cl)oc1C)CCCC3 | inactive: -0.543% | –
27 | Cc1ccc(CNC(=O)c2cc3c(s2)-c2c(C)cccc2OC3)cc1 | inactive: -11.4% | –
28 | COc1ccc(Cn2c(=O)c3ccccc3n3c(-c4cccc(OC)c4OC)nnc23)cc1 | inactive: 0.869% | –
29 | Cc1cccc(NC(=O)C2CCN(c3cnccn3)CC2)c1 | inactive: -0.8% | –
30 | CC1CCN(S(=O)(=O)c2ccc3c(c2)oc(=O)n3CC(=O)O)CC1 | inactive: 14.7% | –
31 | COc1ccc(CC(=O)Nc2ccc3nc(N4CCCCC4)cc(C)c3c2)cc1 | inactive: -28.7% | –
32 | CCOCCCNC(=O)c1ccc(-n2c(-c3ccccc3)cc3c2CCCCC3)cc1 | inactive: 4.7% | –
33 | Cc1cc(C)cc(NC(=O)N2CCN(c3cc(-c4noc(C)n4)ccc3C)CC2)c1 | inactive: -0.443% | –
34 | COc1ccc2c(c1)c1c(c(=O)n(Cc3ccccc3)c(=O)n1CC(=O)NCc1ccccc1)n2C | inactive: -2.25% | –
35 | Cc1cc(=O)oc2cc(OCC(=O)Nc3ccc(O)c(C(=O)O)c3)ccc12 | inactive: 23.4% | –
36 | Oc1ccc(NCc2ccc(OCc3ccccc3)cc2)cc1 | – | active: 10 µM
37 | CCOc1ccc(CC(=O)N2CCc3cc(OC)c(OC)cc3C2COc2ccc3c(C)cc(=O)oc3c2)cc1 (configuration not stated) | inactive: 2.29% | –
38 | CCCn1cnc2cc(NCc3ccc(OC)cc3OC)ccc21 | inactive: -21.7% | –
39 | COc1ccc(CNC(=O)Cc2c(C)c3c(cc(C)c4c(C)c(C)oc43)oc2=O)cc1OC | inactive: 18% | –
40 | Cc1cccc(Cn2c(SCc3ccc(C(=O)NC4CCCC4)cc3)nc3ccncc32)c1 | inactive: -13.9% | –
41 | Cc1cccc(-c2noc(CNC(=O)c3ccccc3Br)n2)c1 | inactive: 18.6% | –
42 | Cc1ccc(NC(=O)c2sc(-n3nc(C)c(Cc4ccc5c(c4)OCO5)c3C)nc2C)cc1Cl | inactive: -11.5% | –
43 | CCOc1ccc(NC(=O)CCc2c(C)nc3cc(-c4ccc(Cl)cc4)nn3c2C)cc1 | inactive: -0.966% | –
44 | CC(C)CNS(=O)(=O)c1ccc(N2CCCCS2(=O)=O)cc1 | inactive: -0.918% | –
45 | Cc1ccc(CNC(=O)CS(=O)(=O)Cc2nc(-c3ccccc3C)oc2C)cc1 | inactive: 4.35% | –
46 | CCCCCn1c(=O)[nH]c2cc(C(=O)NCc3ccccc3)ccc2c1=O | inactive: 0.416% | –
47 | CCCOc1ccc(NC(=O)C(=O)NCCCN2CCOCC2)cc1 | inactive: -3.01% | –
48 | O=C(Nc1ccccc1F)C(Cc1ccccc1)n1cccc1 (configuration not stated) | inactive: 8.58% | –
49 | COc1cccc(C(=O)Nc2ccc3oc(-c4ccc5ccccc5c4)nc3c2)c1 | inactive: 6.42% | –
50 | COc1cc(OC)cc(-c2nc3nc(C)c(CCC(=O)Nc4ccc(Cl)cc4)c(C)n3n2)c1 | inactive: -0.714% | –

Row | Structure (SMILES) | activity change, negative = cytotoxicity | Potency
51 | Cc1cc(C)c(Nc2nn3c(=O)c4cc5c(cc4nc3s2)OCO5)c(C)c1 | inactive: 2.03% | –
52 | O=C(Nc1ccc2nc(SCC(=O)N3CCOCC3)sc2c1)c1ccc(F)cc1 | inactive: 16.6% | –
53 | CCc1ccccc1Nc1nn2c(=O)c3ccc(C(=O)NCc4cccs4)cc3nc2s1 | inactive: -18.5% | –
54 | CCOC(=O)Cn1c(=O)oc2cc(S(=O)(=O)Nc3cc(OC)cc(OC)c3)ccc21 | inactive: -5.4% | –
55 | COc1ccccc1C(=O)NCc1ccc2c(c1)CCN2C(=O)c1cccc(C)c1 | inactive: 9.22% | –
56 | COc1ccc(N2CCN(C(=O)C3CCN(S(=O)(=O)c4cnc[nH]4)CC3)CC2)cc1 | inactive: 0.552% | –
57 | Cc1cccc(C(=O)Nc2cccc(C(=O)OCc3cc(=O)n4c5c(sc4n3)CCCC5)c2)c1 | inactive: -29.6% | –
58 | CN1CCN(C(c2ccc(F)cc2)c2sc3nc(-c4ccco4)nn3c2O)CC1 (configuration not stated) | inactive: 0.788% | –
59 | CCc1ccc(S(=O)(=O)c2nnn3c2nc(NCc2cccs2)c2sccc23)cc1 | inactive: 1.45% | –
60 | CCn1c(C)c(C)c2cc(C(=O)NCCc3cc(OC)c(OC)c(OC)c3)ccc21 | inactive: -23.8% | –
61 | COc1ccccc1C(=O)NCc1ccc2c(c1)CCN2C(=O)c1ccncc1 | inactive: 5.82% | –
62 | Cc1cc(NC(=O)CSc2nc3c([nH]c4ccccc43)c(=O)n2-c2cccc(Cl)c2)no1 | inactive: -3.71% | –
63 | Clc1ccc(-c2noc3ncnc(NCCCN4CCN(c5ccccc5)CC4)c23)cc1 | inactive: -2.79% | –
64 | COc1ccc(CNS(=O)(=O)c2cc(C(=O)Nc3cc(Cl)cc(Cl)c3)ccc2F)cc1 | inactive: -13.7% | –
65 | Cc1ccc(C)c(N2CCN(C(=O)C3CCN(S(=O)(=O)c4cn(C)cn4)CC3)CC2)c1 | inactive: 2.03% | –
66 | CC1=C(C(=O)Nc2cccnc2)C(c2ccc(F)cc2)n2nc(SCc3ccccc3F)nc2N1 (configuration not stated) | inactive: 0.638% | –
67 | CCN(C(=O)c1cc2c(Cl)nc3ccccc3c2s1)c1cccc(Cl)c1 | inactive: 16.1% | –
68 | CCOC(=O)c1cnc2c(C)c(Cl)ccc2c1Nc1ccc(C)cc1C | inactive: -14.8% | –
69 | CCOC(=O)N1CCc2c(sc(NCc3ccc(OCC)cc3)c2C(=O)Nc2ccc(OC)cc2OC)C1 | inactive: -2.02% | –
70 | O=C(NC1CCCC1)c1ccc(CSc2nc3ccncc3n2Cc2ccccc2F)cc1 | inactive: 0.558% | –
71 | COc1cc(NC(=O)CN(C)S(=O)(=O)c2ccc3[nH]c4c(c3c2)CCCC4)cc(OC)c1OC | inactive: -14.4% | –
72 | COc1ccc(OC2CCN(S(=O)(=O)c3ccc(OC)cc3)CC2)cc1 | inactive: -10.3% | –
73 | O=C(CN(c1ccc(Cl)c(C(F)(F)F)c1)S(=O)(=O)c1ccccc1)N1CCc2ccccc2C1 | inactive: -0.835% | –
74 | Cc1ccc(NC(=O)c2sc(-n3nc(C)c(CCC(C)C)c3C)nc2C)cc1C | inactive: -7.56% | –
75 | Cc1nc2ccn(Cc3cccs3)c(=O)c2cc1C(=O)N1CCN(c2ccc(F)cc2)CC1 | inactive: -12% | –

Row | Structure (SMILES) | activity change, negative = cytotoxicity | Potency
76 | Cc1ccc(OCCn2c(CNc3cccc(C)c3)nc3ccccc32)cc1 | inactive: -22.2% | –
77 | CCCN1CCc2nc(N3CCN(CC)CC3)ncc2C1 | inactive: 5.66% | –
78 | CCc1ccccc1N(C)C(=O)C1CCCN(c2ncnc3onc(-c4ccc(F)cc4)c23)C1 (configuration not stated) | inactive: 9.05% | –
79 | CCCCOC(=O)c1ccc(NC(=O)c2cc(-c3ccccc3)on2)cc1 | inactive: -0.265% | –
80 | CC(=O)c1ccc(C(=O)N(CCCN(C)C)c2nc3c(C)c(C)ccc3s2)cc1 | inactive: 3.39% | –
81 | CS(=O)(=O)NCC(c1ccco1)N1CCN(c2ccccc2)CC1 (configuration not stated) | inactive: 15% | –
82 | COc1ccccc1CNc1cc(-c2ccccc2)nc2nncn12 | inactive: -13.6% | –
83 | CCOc1cccc(C(=O)Nc2c(C(=O)c3ccc(OC)cc3)oc3ccccc23)c1 | inactive: -2.68% | –
84 | O=C(CC1N=C2c3ccccc3N=C(SCC(=O)Nc3cccc(Cl)c3)N2C1=O)NCc1cccs1 (configuration not stated) | inactive: -14.8% | –
85 | CC1CCN(S(=O)(=O)c2ccc(N3CCCCS3(=O)=O)cc2)CC1 | inactive: -4.81% | –
86 | COc1ccc(CCNC(=O)Cn2cc(S(=O)(=O)Cc3ccccc3F)c3ccccc32)cc1OC | inactive: -2.86% | –
87 | Cc1cccc(Cn2c(=O)n(CCC(=O)NCc3ccc4c(c3)OCO4)c(=O)c3sccc32)c1 | inactive: 1.16% | –
88 | COc1ccc2c(c1)Cc1sc(NC(=O)c3ccccc3Br)nc1-2 | inactive: -11.6% | –
89 | CCn1c(SCC(=O)Nc2ccc(C)cc2Br)nnc1-c1nonc1NC(C)=O | inactive: -0.526% | –
90 | Cc1ccc(C)n1-c1nnc(N2CCC(C(=O)Nc3ccccc3Br)CC2)s1 | inactive: -0.0795% | –
91 | CCn1ccc2cc(S(=O)(=O)N3CCCN(C(=O)Nc4ccccc4C(F)(F)F)CC3)ccc21 | inactive: 1.25% | –
92 | COc1cccc(CNC(=O)CSc2nc(=O)[nH]c3c2CCCC3)c1 | inactive: 0.634% | –
93 | Oc1c(C(c2ccc(Cl)cc2Cl)N2CCOCC2)sc2nc(-c3ccco3)nn12 (configuration not stated) | inactive: 3.54% | –
94 | CCc1ccc(NC(=O)Cn2c(=O)c(-c3ccccc3NC(C)=O)nc3ccccc32)cc1 | inactive: -4.12% | –
95 | Cc1ccc2c(=O)cc(C(=O)Nc3nnc(CC(C)C)s3)oc2c1C | inactive: 1.38% | –
96 | Cc1nc(N2C(=O)c3oc4ccccc4c(=O)c3C2c2ccccc2F)sc1C (configuration not stated) | inactive: -17.5% | –
97 | COc1cccc(N2CCN(S(=O)(=O)c3cc(Br)cc4c3N(C(=O)C3CC3)CC4)CC2)c1 | inactive: 19.5% | –
